The list shows a part of the results.
Molecular target: T1, MBP-FoxP1dN (Mus musculus, UniProt P58462 326-579)
T1 sequence: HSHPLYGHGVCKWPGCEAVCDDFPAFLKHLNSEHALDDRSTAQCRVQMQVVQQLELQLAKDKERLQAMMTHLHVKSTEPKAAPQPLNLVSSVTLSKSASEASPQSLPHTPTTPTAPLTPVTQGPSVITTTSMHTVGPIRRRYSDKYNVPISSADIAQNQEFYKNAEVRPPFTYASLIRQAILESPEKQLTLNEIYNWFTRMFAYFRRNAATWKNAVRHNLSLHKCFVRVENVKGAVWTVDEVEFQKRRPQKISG
Experiment: PD-seq (MBP pull-down with sequencing); 20 mM Tris-HCl pH 7.5, 100 mM NaCl, 1.5 mM MgCl2, 0.4 uM protein, 0.1 uM dsDNA library, 30 min, room temperature, amylose pull-down; high values mean tight binding
Conditions: protein: recombinant; tags: His6-MBP; chain copies: 2; dsDNA, one strand shown
In short: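 Binding is reads-per-million enrichment of pull-down over input, with replicates pooled. It comes from 30 min room-temperature incubation in Tris pH 7.5 buffer with NaCl and MgCl2 of 0.4 µM His6-MBP-tagged, N-terminally truncated mouse FoxP3 or FoxP1 fragment from E. coli with 0.1 µM Klenow-filled degenerate double-stranded DNA library, followed by amylose resin capture, three washes and Illumina sequencing of the released DNA.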

Sequence	binding signal
GATGATTGTTCTCCCAGCTGATGAATTTACGATGTCGAGTAAACAAATTTTCCTAATCTTTCTGTTCAAGCGCCATCTAC	1.43 RPM ratio (pull-down/input)
GATGATTGTTCTCCCAGCTGATGAATTGGTCATATCGAGTAAACAAATTTTCCTAATCTTTCTGTTCAAGCGCCATCTAC	0.999 RPM ratio (pull-down/input)
GATGATTGTTCTCCCAGCTGATGAATTAACCTCTTCGAGTAAACAAATTTTCCTAATCTTTCTGTTCAAGCGCCATCTAC	0.882 RPM ratio (pull-down/input)
GATGATTGTTCTCCCAGCTGATGAATTTCCTTGATCGAGTAAACAAATTTTCCTAATCTTTCTGTTCAAGCGCCATCTAC	0.863 RPM ratio (pull-down/input)
GATGATTGTTCTCCCAGCTGATGAATTCATGTACTCGAGTAAACAAATTTTCCTAATCTTTCTGTTCAAGCGCCATCTAC	1.03 RPM ratio (pull-down/input)
GATGATTGTTCTCCCAGCTGATGAATTCGAAAATTCGAGTAAACAAATTTTCCTAATCTTTCTGTTCAAGCGCCATCTAC	0.903 RPM ratio (pull-down/input)
GATGATTGTTCTCCCAGCTGATGAATTGTACACCTCGAGTAAACAAATTTTCCTAATCTTTCTGTTCAAGCGCCATCTAC	1.05 RPM ratio (pull-down/input)
GATGATTGTTCTCCCAGCTGATGAATTAATTAGATCGAGTAAACAAATTTTCCTAATCTTTCTGTTCAAGCGCCATCTAC	1.02 RPM ratio (pull-down/input)
GATGATTGTTCTCCCAGCTGATGAATTTTCCGGCTCGAGTAAACAAATTTTCCTAATCTTTCTGTTCAAGCGCCATCTAC	0.758 RPM ratio (pull-down/input)
GATGATTGTTCTCCCAGCTGATGAATTCAGTGTATCGAGTAAACAAATTTTCCTAATCTTTCTGTTCAAGCGCCATCTAC	1.17 RPM ratio (pull-down/input)
GATGATTGTTCTCCCAGCTGATGAATTTAGGCGCTCGAGTAAACAAATTTTCCTAATCTTTCTGTTCAAGCGCCATCTAC	0.917 RPM ratio (pull-down/input)
GATGATTGTTCTCCCAGCTGATGAATTGGGCGAGTCGAGTAAACAAATTTTCCTAATCTTTCTGTTCAAGCGCCATCTAC	0.889 RPM ratio (pull-down/input)
GATGATTGTTCTCCCAGCTGATGAATTGGTGTTTTCGAGTAAACAAATTTTCCTAATCTTTCTGTTCAAGCGCCATCTAC	2.65 RPM ratio (pull-down/input)
GATGATTGTTCTCCCAGCTGATGAATTATGTATTTCGAGTAAACAAATTTTCCTAATCTTTCTGTTCAAGCGCCATCTAC	1.32 RPM ratio (pull-down/input)
GATGATTGTTCTCCCAGCTGATGAATTTGGCGATTCGAGTAAACAAATTTTCCTAATCTTTCTGTTCAAGCGCCATCTAC	0.91 RPM ratio (pull-down/input)
GATGATTGTTCTCCCAGCTGATGAATTATATTTTTCGAGTAAACAAATTTTCCTAATCTTTCTGTTCAAGCGCCATCTAC	1.61 RPM ratio (pull-down/input)
GATGATTGTTCTCCCAGCTGATGAATTCAGTAAGTCGAGTAAACAAATTTTCCTAATCTTTCTGTTCAAGCGCCATCTAC	0.921 RPM ratio (pull-down/input)
GATGATTGTTCTCCCAGCTGATGAATTGCCGGAATCGAGTAAACAAATTTTCCTAATCTTTCTGTTCAAGCGCCATCTAC	0.95 RPM ratio (pull-down/input)

Source: paper PMC12820563, “FoxP3 forms a head-to-head dimer in vivo and stabilizes its multimerization on adjacent microsatellites”
